The target in assay [1] is T1, HEK cells expressing Nav1.3 channels (Homo sapiens, UniProt Q9NY46). As to the kind of experiment: cell-based.
Assay [2] concerns the target T1, HEK cells expressing Nav1.3 channels.

Consider 1 compound from patent US7728034B2, “Treating neurological disorders using selective antagonists of persistent sodium current” (Allergan, Inc., priority 2003, dated 2010).

T1 sequence (Q9NY46 whole entry): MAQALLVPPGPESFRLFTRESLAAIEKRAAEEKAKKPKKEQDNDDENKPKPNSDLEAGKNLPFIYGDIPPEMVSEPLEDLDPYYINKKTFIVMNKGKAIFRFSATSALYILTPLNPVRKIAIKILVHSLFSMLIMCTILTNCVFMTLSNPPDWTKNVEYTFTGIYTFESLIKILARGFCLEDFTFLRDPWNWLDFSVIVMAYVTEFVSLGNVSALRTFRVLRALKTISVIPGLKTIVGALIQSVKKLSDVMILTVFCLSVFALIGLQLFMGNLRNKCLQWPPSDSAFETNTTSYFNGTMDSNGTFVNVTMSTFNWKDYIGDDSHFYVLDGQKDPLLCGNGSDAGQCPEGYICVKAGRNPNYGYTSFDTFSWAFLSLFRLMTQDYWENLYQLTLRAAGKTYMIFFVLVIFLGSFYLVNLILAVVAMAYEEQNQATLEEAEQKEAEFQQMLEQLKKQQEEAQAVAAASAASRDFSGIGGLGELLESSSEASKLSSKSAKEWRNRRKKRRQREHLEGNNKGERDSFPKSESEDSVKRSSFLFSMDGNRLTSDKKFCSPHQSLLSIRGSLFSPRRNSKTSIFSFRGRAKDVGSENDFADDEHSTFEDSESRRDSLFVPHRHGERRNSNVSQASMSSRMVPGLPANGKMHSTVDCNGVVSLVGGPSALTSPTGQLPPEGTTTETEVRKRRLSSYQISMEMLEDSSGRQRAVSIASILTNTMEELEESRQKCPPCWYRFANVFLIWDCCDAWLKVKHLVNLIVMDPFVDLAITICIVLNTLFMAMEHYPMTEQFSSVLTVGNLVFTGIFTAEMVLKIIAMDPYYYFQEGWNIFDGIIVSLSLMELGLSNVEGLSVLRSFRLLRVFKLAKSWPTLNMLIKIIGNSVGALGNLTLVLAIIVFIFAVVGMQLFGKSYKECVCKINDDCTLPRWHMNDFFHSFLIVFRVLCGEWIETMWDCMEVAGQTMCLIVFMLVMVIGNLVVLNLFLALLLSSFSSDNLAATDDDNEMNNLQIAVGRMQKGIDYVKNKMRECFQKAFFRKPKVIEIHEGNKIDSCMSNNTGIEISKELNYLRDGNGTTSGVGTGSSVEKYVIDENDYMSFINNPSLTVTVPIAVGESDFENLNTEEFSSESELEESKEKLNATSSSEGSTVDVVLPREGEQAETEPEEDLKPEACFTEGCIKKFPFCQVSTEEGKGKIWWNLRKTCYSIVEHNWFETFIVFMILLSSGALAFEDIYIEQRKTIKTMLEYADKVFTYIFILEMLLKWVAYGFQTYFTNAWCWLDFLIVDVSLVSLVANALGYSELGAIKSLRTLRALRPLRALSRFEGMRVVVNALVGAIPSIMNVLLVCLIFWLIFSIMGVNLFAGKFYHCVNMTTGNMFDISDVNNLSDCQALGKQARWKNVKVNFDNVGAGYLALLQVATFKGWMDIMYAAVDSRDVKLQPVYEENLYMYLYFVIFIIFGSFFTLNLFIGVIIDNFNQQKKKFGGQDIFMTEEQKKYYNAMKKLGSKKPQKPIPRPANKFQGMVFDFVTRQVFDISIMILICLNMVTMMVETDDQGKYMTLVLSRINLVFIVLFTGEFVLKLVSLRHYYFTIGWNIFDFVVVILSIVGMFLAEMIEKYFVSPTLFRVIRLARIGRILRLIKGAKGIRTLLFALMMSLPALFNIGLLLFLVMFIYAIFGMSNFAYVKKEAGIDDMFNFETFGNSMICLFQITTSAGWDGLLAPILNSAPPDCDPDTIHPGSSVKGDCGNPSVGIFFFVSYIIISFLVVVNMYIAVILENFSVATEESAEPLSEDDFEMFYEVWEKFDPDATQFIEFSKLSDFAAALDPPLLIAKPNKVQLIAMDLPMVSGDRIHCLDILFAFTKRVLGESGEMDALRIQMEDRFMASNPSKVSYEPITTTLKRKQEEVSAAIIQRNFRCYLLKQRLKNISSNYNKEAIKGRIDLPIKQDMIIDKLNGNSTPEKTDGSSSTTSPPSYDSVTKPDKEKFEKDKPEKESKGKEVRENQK

For the compound `O=C(NCCCCc1ccccc1)c1cccs1` [Compound 1, thiophene-2-carboxylic acid (4-phenyl-butyl)-amide], a half-maximal effect in assay [1] (EC50) was put at 3.71 µM. Also, in assay [2] (3 μM, 200 msec pulse to 0 mV from -90 mV, FIG. 4), the “reduction of the transient current” value is 16%. Moreover, in assay [2] (at approximately 5 μM), the “expected effect on the transient current at the estimated plasma concentration” value was “only a limited effect” and the “expected reduction of the persistent sodium current at the estimated plasma concentration” value was “more than 60%”. The “selectivity for blocking the persistent sodium current relative to the transient sodium current” value in assay [2] (dose-response analysis over a four order of magnitude range, FIG. 5) is reported as “significant selectivity”.
